Data from the supplement of paper PMC10338343.
± gives the standard deviation. Only a part is listed here, and it is no random draw.

System: MIWI (PIWIL1) piRISC loaded with piRNA #1 (30 nt)
Assay: pre-steady-state target cleavage rate (min^-1); MIWI and MILI are mouse PIWI proteins and EfPiwi is from a freshwater sponge; tags in brackets are library labels; higher = faster piRNA-guided slicing of the target
Settings: guide: piRNA #1 5'p-UGAGGUAGUAGGUUGUAUAGUAUCCAGAGG; auxiliary factor: 500 nM mouse GTSF1
Outline: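 In HEPES–potassium acetate buffer at 33 °C, […] transcribed, DNA-blocked target RNA library was mixed with 1 nM active affinity-purified piRISC carrying one synthetic guide, with or without 500 nM GTSF1 partner protein, for 0–8 or 0–960 min. Uncleaved targets were sequenced and normalised to depth and to weakly complementary targets; three trials were pooled and k3 was capped at 0.0001 min^-1. The pre-steady-state cleavage rate followed from a burst-and-steady-state fit.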
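Further: 1 nM active piRISC with 0.1 nM target library at 33 °C single turnover.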

Sequence	pre-steady-state target cleavage rate
GGAGACCACACUAUACAACCUACUACCUCA	1.36 ± 0.1
GCUCUGGAUACUAUCCAACCUACUACCUCA	2.05 ± 0.14
GGUCUGGAUACUAUACAACCUAGCUACCUCA	0.255 ± 0.021
GGAGACGAUACUUUACAACCUACUACCACA	0.641 ± 0.061
GGAGACCAUACGAUACAACCUACUACCUCA	1.53 ± 0.12
GCUCUGGAUACUAUACAUCCUUCUACCUCA	0.322 ± 0.026
GGAGACCUAUGAUAUGUACCUACCUACCUCA	< 0.0001
GGUCUGGAUACUAUACAACCUUCUACGUCA	0.16 ± 0.026
GGAGACGAUACAAUACAACCUACUUCCUCA	0.408 ± 0.056
GGAGACCUAUCUAUUCAUCCUACUACCUCA	0.0812 ± 0.015
GGAGACCUAUCUAUAUAACCUACUACCUCA	0.755 ± 0.06
GGACUGGAUACUAUACAACCAACUACCACA	0.0843 ± 0.012
GGAGUCGAUACUUUACAACCUACUACCUCA	1.53 ± 0.097
GGAGACCAUCUAUACAACCUACUACCUCA	1.02 ± 0.1
CGUCAGGAUACUAUACAACCUACUACCUCA	1.76 ± 0.12
GGAGUGUAUACUAUACAACCUACUACCUCA	1.54 ± 0.092
GGAGACCUUACUAUACAACCUACAUGGAGA [g8:g22:cont:t1A]	0.015 ± 0.0043
CCUCUGGUUACUAUACAACCUUCUACCUCA	0.907 ± 0.044
GGAGACCUAUGUAUACAACCUACUACCUAA	0.0981 ± 0.013
GCUCUGGUUACUAUACAACCUACUUCCUCA	0.472 ± 0.041
GGACUGGAUACUAUAGUUCCUACUACCUCA	0.165 ± 0.03
GGACUGGAUACAUUACAACCUACUACCUCA	1.24 ± 0.12
CCUCUGGAUACUAUACAACCUAGAACCUCA	0.361 ± 0.046
GGAGACCAUACUAUACAACCUACUACCCCA	0.915 ± 0.081
